The source of these data is paper PMC4336329 (PLoS ONE, 2015).

SMILES strings stand for the structures. Among all 310,000 compounds or so, about 2,200 (0.71%) showed an effect of 50% or more. The effect is printed as a negative number. The list shows a part of the results.

Chain of human ether-à-go-go-related gene (hERG) potassium channel (Q12809 whole entry, looked up): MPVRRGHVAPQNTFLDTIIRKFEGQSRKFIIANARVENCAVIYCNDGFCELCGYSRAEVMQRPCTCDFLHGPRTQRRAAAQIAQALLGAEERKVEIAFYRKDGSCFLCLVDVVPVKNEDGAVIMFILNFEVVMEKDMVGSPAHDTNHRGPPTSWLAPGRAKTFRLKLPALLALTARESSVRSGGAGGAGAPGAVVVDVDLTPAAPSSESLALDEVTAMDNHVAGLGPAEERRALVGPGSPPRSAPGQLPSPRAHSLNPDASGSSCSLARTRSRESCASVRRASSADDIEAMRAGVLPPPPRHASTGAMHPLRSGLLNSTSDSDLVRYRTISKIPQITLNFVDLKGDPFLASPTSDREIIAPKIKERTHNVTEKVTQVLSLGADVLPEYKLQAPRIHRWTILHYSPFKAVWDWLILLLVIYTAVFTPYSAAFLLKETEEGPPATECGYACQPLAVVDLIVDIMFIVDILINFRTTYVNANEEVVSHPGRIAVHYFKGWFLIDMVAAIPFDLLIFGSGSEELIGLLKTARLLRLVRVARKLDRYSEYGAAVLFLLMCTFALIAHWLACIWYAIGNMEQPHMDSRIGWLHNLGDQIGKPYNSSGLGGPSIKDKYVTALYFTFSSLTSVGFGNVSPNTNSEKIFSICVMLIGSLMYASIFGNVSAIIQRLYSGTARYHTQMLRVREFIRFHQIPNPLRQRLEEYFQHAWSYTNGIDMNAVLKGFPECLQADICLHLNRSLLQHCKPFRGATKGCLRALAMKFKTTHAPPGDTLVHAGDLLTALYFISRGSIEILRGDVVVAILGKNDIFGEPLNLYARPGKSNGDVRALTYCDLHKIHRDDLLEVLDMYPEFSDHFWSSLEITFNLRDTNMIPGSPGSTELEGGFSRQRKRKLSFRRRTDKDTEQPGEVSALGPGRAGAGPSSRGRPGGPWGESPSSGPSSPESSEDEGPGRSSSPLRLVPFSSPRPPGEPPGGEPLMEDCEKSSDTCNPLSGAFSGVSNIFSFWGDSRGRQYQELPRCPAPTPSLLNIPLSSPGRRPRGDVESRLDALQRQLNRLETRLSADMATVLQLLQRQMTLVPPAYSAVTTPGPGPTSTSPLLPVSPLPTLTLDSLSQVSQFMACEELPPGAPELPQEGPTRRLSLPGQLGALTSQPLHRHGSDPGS

This experiment has as its target human ether-à-go-go-related gene (hERG) potassium channel (human, UniProt Q12809). The experiment is described as follows: primary screen, population patch clamp on CHO cells stably expressing hERG.
For the compound `Cc1ccc2[nH]c3c(=O)[nH]ncc3c2c1`, the “hERG current change (%, negative = inhibition) at 1uM” value amounted to 13.6%.
Regarding `O=C(CCCN1C(=O)c2ccccc2C1=O)Nc1ccc2c(c1)OCCO2`, the “hERG current change (%, negative = inhibition) at 1uM” value came out at 16.2%.
Then `CCCCN1C(=O)C(O)=C(C(C)=O)C1c1ccccc1[N+](=O)[O-]` (stereo not shown), with 4.11%; and `O=C(NN1C(=O)c2ccccc2NC12CCCCC2)c1ccccc1`, with 1.07%; and `COc1ccc(N(CC(=O)Nc2cc(C)ccc2C)S(=O)(=O)c2c(C)nn(C)c2C)cc1`, with 7.7%.
As for `C=CCNS(=O)(=O)c1ccc(OC)c(C)c1`, the figure is 14.2%.
`COc1cc(/C=N/NS(=O)(=O)c2ccc(Br)cc2)ccc1O`: the “hERG current change (%, negative = inhibition) at 1uM” value came out at 17.5%.
As for `Cc1ccc(NCc2n[nH]c(=S)n2-c2ccccc2)c(C)c1`, the figure is 2.53%; as for `COc1ccc(-c2ocnc2C(=O)Nc2ccc3c(c2)CCC3)cc1`, 12.7%.
In the case of `O=C(N/N=C/c1ccc(O)cc1O)/C(=C/c1ccccc1)CCO`, the “hERG current change (%, negative = inhibition) at 1uM” value is recorded as 2.62%.
As for `CC(=O)N/C(=C\c1ccc(F)cc1)C(=O)NC(C(=O)O)C(C)C` (stereo not shown), the figure is 8.16%; as for `Cc1ccc2c(c1)-c1c(cnn1CC(=O)N(Cc1ccco1)C1CCCCC1)CO2`, 2.98%; as for `COC(=O)c1cc(S(=O)(=O)N2CCCCC2C)c[nH]1` (stereo not shown), 16.8%.
Then `COc1ccc(CCN(C)CC(O)COC(c2ccc(F)cc2)c2ccc(F)cc2)cc1OC` (stereo not shown), with -79.9%; and `Cn1c(=O)[nH]c(=O)c2c1nc(SCC(=O)O)n2CCc1ccccc1`, with 20.2%.
On to `CCOC(=O)C1CCN(C(=O)c2cc3cc4cc(OC)ccc4nc3o2)CC1`, for which the “hERG current change (%, negative = inhibition) at 1uM” value worked out at 5.14%.
For `COc1ccccc1CC(NC(C)=O)C(=O)N1CCN(C(=O)Nc2ccccc2Cl)CC1` (stereo not shown), the “hERG current change (%, negative = inhibition) at 1uM” value is recorded as 14.5%.
As for `COC(=O)Nc1ccc(S(=O)(=O)N2CCN(c3ccc(F)cc3)CC2)cc1`, the figure is 7%.
As for `Cc1ccc(SCC(=O)NC(=O)c2ccc(S(=O)(=O)N(C)C)cc2)cc1C`, the figure is -2.42%; as for `N#Cc1nc(COc2ccc(F)cc2)oc1NCCCn1ccnc1`, -42.2%.
As for `O=C(c1ccc(NS(=O)(=O)c2ccc3[nH]c(=O)[nH]c3c2)cc1)N1CCCC(C(F)(F)F)C1` (stereo not shown), the figure is 11.5%.
For the compound `COc1ccc(S(=O)(=O)NC2CCSc3ccccc32)cc1OC` (stereo not shown), the “hERG current change (%, negative = inhibition) at 1uM” value came out at 8.26%.
For `COc1ccccc1N(CC(=O)N/N=C(\C)c1ccccc1O)S(=O)(=O)c1ccc(C)cc1`, the “hERG current change (%, negative = inhibition) at 1uM” value is listed as 9.21%.
Regarding `Cc1ccc(Nc2nc(C)c(CCC(C)C)c(=O)[nH]2)cc1`, the “hERG current change (%, negative = inhibition) at 1uM” value is recorded as 8.07%.
Consider `CCOC(=O)C1CCCN(C(=S)Nc2cccc(Cl)c2)C1` (stereo not shown), for which the “hERG current change (%, negative = inhibition) at 1uM” value was found to be 8.57%.
As for `CC(Cc1cccc(C(F)(F)F)c1)NCCOC(=O)c1ccccc1.Cl` (stereo not shown), the figure is 3.42%; as for `Cc1ccccc1C(=O)Oc1ccc(Sc2ccc(O)cc2)cc1`, 8.93%; as for `CCc1cccc(CC)c1NC(=S)NCC(c1cccnc1)N1CCOCC1` (stereo not shown), 3.5%.
For the compound `O=C(COc1cccc(F)c1)Nc1nc(-c2cccnc2)cs1`, the “hERG current change (%, negative = inhibition) at 1uM” value was 14%.
With `COc1ccc(NC(=O)Nc2ccc(Cc3ccncc3)cc2)c(OC)c1`, the “hERG current change (%, negative = inhibition) at 1uM” value was found to be 4.99%.
Take `C#CCOc1ccc(C2C3=C(CC(C)(C)CC3=O)N(CC(=O)O)C3=C2C(=O)CC(C)(C)C3)cc1OC`: the “hERG current change (%, negative = inhibition) at 1uM” value was determined as 18.7%.
In the case of `Cc1cc(Cl)ccc1OCCCC(=O)N1CCOCC1`, the “hERG current change (%, negative = inhibition) at 1uM” value is recorded as -7.13%.
Then `COc1ccc(CCC(C)N2CCOCC2)cc1` (stereo not shown), with 5.6%.
Then `CC(=Nc1ccc(F)cc1)c1c(O)n(C)c(=O)[nH]c1=O`, with 17%; and `Cc1ccc(C)c(S(=O)(=O)N2CCNCC2)c1`, with 7.02%; and `O=C(O)C1CC=CCC1C(=O)Nc1ccc(S(=O)(=O)N2CCCc3ccccc32)cc1` (stereo not shown), with 6.18%.
As for `O=C(COc1ccccc1)N1CCN(c2ccc([N+](=O)[O-])c(N3CCCCC3)c2)CC1`, the figure is 10.7%; as for `CCOC(=O)c1c(C)[nH]c(C)c1-c1ccccc1OC`, 5.44%.
For `CCOC(=O)N1CCC(NS(=O)(=O)c2ccc(C#N)cc2)CC1`, the “hERG current change (%, negative = inhibition) at 1uM” value is recorded as 10.2%.
On to `Cc1ccc(NC(=O)CCC(=O)c2ccc(Br)cc2)cc1`, for which the “hERG current change (%, negative = inhibition) at 1uM” value was found to be 10.9%.
As for `CC(C)(C)NS(=O)(=O)c1cccc(S(=O)(=O)c2cccc(S(=O)(=O)NC(C)(C)C)c2)c1`, the figure is -8.48%.
Then `COc1cc(CN(C)Cc2cccc3ccccc23)cc([N+](=O)[O-])c1O`, with 12.5%.
As to `O=C(COc1cccc(Br)c1)N/N=C1\CCSC1`, the “hERG current change (%, negative = inhibition) at 1uM” value amounted to 6.12%.
As for `Nn1c(-c2ccccc2)nc2ccccc2c1=O`, the figure is 7.79%.
As for `Cc1ccc(OCC(=O)Nn2cnc3ccccc32)cc1`, the figure is 2.55%.
For `O=C(Cc1csc(N2CCOCC2)n1)N/N=C/c1ccc(F)cc1`, the “hERG current change (%, negative = inhibition) at 1uM” value amounted to 3.97%.
Then `Cn1nc(CC(=O)N2CCN(c3ccccc3)CC2)c2ccccc2c1=O`, with -5.42%; and `CCn1c(SCC(=O)c2cc(OC)ccc2OC)nnc1-c1ccncc1`, with 7%.
As for `COc1cccc(C(=O)CC(=O)C(=O)Nc2cc(Cl)c(OC)cc2OC)c1`, the figure is 11.7%.
As to `CN(C)c1ccc(-c2noc(-c3ccccc3O)n2)cc1`, the “hERG current change (%, negative = inhibition) at 1uM” value was determined as 3.12%.
As for `C[C@H](NC(N)=O)C(=O)OCC(=O)Nc1ccc(OC(F)F)cc1`, the figure is -1.05%; as for `O=C(CCn1nnc2ccccc21)NNC(=O)C1CCCCC1`, 18.3%; as for `CCn1c(SCc2nc(-c3ccc(OC)c(OC)c3)no2)nnc1-c1cccs1`, -1.52%.
Then `O=C(c1cccc(S(=O)(=O)N2CCOCC2)c1)N1CCN(S(=O)(=O)c2cccs2)CC1`, with 9.64%.
Consider `O=C(OCC(=O)N1CCOCC1)c1cnc(Cl)c(Cl)c1`, for which the “hERG current change (%, negative = inhibition) at 1uM” value is on record as -0.0536%.
As for `Cc1onc(-c2ccccc2Cl)c1C(=O)OCc1cnc(Cl)s1`, the figure is 15.1%; as for `NC(=S)N/N=C/c1cccc(O)c1O`, 22.9%.
For `COC(=O)c1sc(SC)c2c1CC(C)(C)C/C2=N/O`, the “hERG current change (%, negative = inhibition) at 1uM” value amounted to 13.4%.
As for `COC(=O)Cn1c2c(c3cc(C)ccc31)CCCC2`, the figure is 6.1%.
For the compound `CC(=O)C1=C(C)NC(SCC(N)=O)=C(C#N)C1c1sccc1C` (stereo not shown), the “hERG current change (%, negative = inhibition) at 1uM” value is given as 12.4%.
For `CCCCn1c(N)c(N(CC)C(=O)c2cccc(S(=O)(=O)N3CCCc4ccccc43)c2)c(=O)[nH]c1=O`, the “hERG current change (%, negative = inhibition) at 1uM” value came out at 7.74%.
As for `CCOc1cc(/C=C2/C(=O)N(c3ccccc3)N=C2C)ccc1OC(=O)c1cccs1`, the figure is 7.49%; as for `Cc1cc(CN(C)C(=O)CC2C(=O)NCCN2CC(c2ccccc2)c2ccccc2)on1` (stereo not shown), 10.5%.
Regarding `O=C(CSc1nncs1)N1CCN(C(=O)c2ccco2)CC1`, the “hERG current change (%, negative = inhibition) at 1uM” value was 10%.
Consider `CC(=O)Nc1ccc(NC(=O)c2ccc(Cl)nc2)cc1`, for which the “hERG current change (%, negative = inhibition) at 1uM” value was found to be 6.35%.
Then `Cc1ccc(N2CC(C(=O)Nc3c4c(nn3C(C)(C)C)CS(=O)(=O)C4)CC2=O)cc1C` (stereo not shown), with 2.17%; and `CC(NC(=O)CSc1ncnc2nc[nH]c12)c1ccccc1` (stereo not shown), with 15.7%; and `Cc1oc(C(C)(C)C)cc1C(=O)N1CCN(c2ccc(C(F)(F)F)cn2)CC1`, with 9.49%.
As for `COc1ccc(/C=C/C(=O)c2cc(Br)ccc2OC(=O)c2ccco2)cc1OC`, the figure is 12.6%; as for `CN(C)C(=O)COC(=O)/C=C/c1ccccc1[N+](=O)[O-]`, 20.6%; as for `COc1ccc(CCNC(=O)c2cccc(S(=O)(=O)N3CCCCC3)c2)cc1`, -5.48%.
As for `CC(=O)OC(C(=O)NCS(=O)(=O)c1ccc(C)cc1)c1cccnc1` (stereo not shown), the figure is 14.3%; as for `N#Cc1c(N)nc2c(c1-c1ccc(F)cc1)c(=O)nc1sccn12`, 21.9%.
Regarding `COc1ccc(S(=O)(=O)N2CCC(C(=O)NCCC(=O)NCc3ccccc3OC)CC2)cc1`, the “hERG current change (%, negative = inhibition) at 1uM” value is reported as 9.8%.
Then `CC(C)Oc1cccc(C(=O)Nc2ccc(NC(=O)c3ccco3)cc2)c1`, with 13.5%.
As to `Cc1ccccc1NC(=S)N1CCCN(Cc2ccc(F)cc2)C1`, the “hERG current change (%, negative = inhibition) at 1uM” value worked out at 8.61%.
For `O=C(c1cccc(C(=O)N2CCN(c3ccc(F)cc3)CC2)c1)N1CCN(c2ccc(F)cc2)CC1`, the “hERG current change (%, negative = inhibition) at 1uM” value is recorded as -22.7%.
Then `O=C(Nn1c(O)c(C=C2N=c3ccccc3=N2)sc1=S)c1ccc(Cl)cc1`, with 7.35%; and `O=C(O)c1cccc(S(=O)(=O)Nc2cccc3ccccc23)c1`, with 7.52%; and `COc1cc2nc(CSc3nc(-c4ccc(F)cc4)cs3)[nH]c(=O)c2cc1OC`, with 12.9%.
As for `CC(C)(C)P(=O)(N1CCOCC1)N1CCOCC1`, the figure is 8.69%.
Then `CN(C)c1nc(-c2cccnc2)nc(-c2ccccc2)c1C#N`, with 9.9%.
Regarding `CCOc1ccc(CN(C(=O)c2cc3ccccc3oc2=O)C2CCS(=O)(=O)C2)cc1` (stereo not shown), the “hERG current change (%, negative = inhibition) at 1uM” value worked out at 0.919%.
Then `OCCC1CN(Cc2ccon2)CCN1Cc1ccc(F)c(F)c1` (stereo not shown), with 3.9%.
With `COc1ccccc1NC(=O)C(NC(=O)c1ccc(C)cc1)c1ccccc1` (stereo not shown), the “hERG current change (%, negative = inhibition) at 1uM” value is reported as 15.4%.
Then `CCOc1cccc(N(C(=O)Cc2cccs2)C(C(=O)NC2CCCCC2)c2cccn2C)c1` (stereo not shown), with 10.6%; and `CC(=O)N1CCN(C(=S)NC(=O)c2ccc(S(=O)(=O)N3CCOCC3)cc2)CC1`, with 13.2%.
With `Cc1ccc(Sc2ncccc2[N+](=O)[O-])cc1`, the “hERG current change (%, negative = inhibition) at 1uM” value stood at 5.68%.
